The list shows a part of the results.

The test concerns PfAP2-HC AP2 domain (GST-tagged). In words: gcPBM binding intensity (ln(normalized median fluorescence intensity)); higher = stronger DNA binding. An outline of the steps:
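An Agilent 4 × 180k array of primer-extended double-stranded 36-bp intergenic genomic probes, with negative controls, was incubated for 1 h with GST-tagged P. falciparum DNA-binding domains expressed in E. coli. Alexa488 anti-GST antibody detected bound protein, scanned at 488 nm. Binding intensity is the highest Masliner-normalised natural-log median intensity across replicate spots of either probe orientation.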
Consider AAAAAAATAGTCTTCTTGCACTTTTTAATTTATTTT, for which the “gcPBM binding intensity (ln)” value stood at 9.6.

“TTATAATAAAATGAATATATATAATTTAAAATATTT [CACACA_negctrl_site1651]”: the “gcPBM binding intensity (ln)” value came out at 9.48.

In the case of “TACATATATAAAAAAACACACACATATATATATATA [CACACA_site8315]”, the “gcPBM binding intensity (ln)” value is 9.93.

As for “TGTATAATAAGGAAGAGTACAAGTAAATACACACAT [XGTACX_site2084]”, the “gcPBM binding intensity (ln)” value was 10.2.

Turning to “TGTATTTATAGACACACACACTTTCTTTTTTTAAGA [CACACA_site7010]”, the “gcPBM binding intensity (ln)” value came out at 9.96.

Consider “AACAATTAGAACTTTGCACACTTCTATATATTTTGT [CACACA_site674]”, for which the “gcPBM binding intensity (ln)” value is 10.

With “TATATATAAAATGTATGTACATATTTATTTATATAG [XGTACX_site657]”, the “gcPBM binding intensity (ln)” value came to 9.58.

As to “AAGTGAAATAAAATATGTACATATATGTATATATAA [XGTACX_site4473]”, the “gcPBM binding intensity (ln)” value was determined as 9.92.

With “TTTTTTCTTCGTGTATTAAGTCACAATAGGAAAAAA [GTGCAC_negctrl_site644]”, the “gcPBM binding intensity (ln)” value turned out to be 9.16.

“AAAAAAAAAGAATGTGAACACACACCGTGAATATAA [CACACA_site8342]”: the “gcPBM binding intensity (ln)” value was determined as 9.96.

“TATATATATAACATTGTACACACAAAGAAATAATAT [CACACA_site8998]”: the “gcPBM binding intensity (ln)” value is 9.96.

Take “TTGTATTAATAATTTTTTATATTATAGTTTATAATA [GTGCAC_negctrl_site130]”: the “gcPBM binding intensity (ln)” value was found to be 9.44.

For “ATCGGTATATTATTACATGAATAAACTTACACACAC [TGCATGCA_negctrl_site21]”, the “gcPBM binding intensity (ln)” value worked out at 10.1.

With “TTACAAAACACTTATACACACATATATATATATATA [CACACA_site2716]”, the “gcPBM binding intensity (ln)” value turned out to be 9.74.

For the sequence “TAATATATTAAAAATAGTACATAAGAAAAATAAGTA [XGTACX_site7957]”, the “gcPBM binding intensity (ln)” value came out at 9.87.

Consider “AAAACTATATTAATGTGTACACATCAAAATATTAAT [XGTACX_site6767]”, for which the “gcPBM binding intensity (ln)” value came out at 9.79.

As to “CAAAATTATCAGAATCGTACATTTTTAACATATAAT [XGTACX_site7909]”, the “gcPBM binding intensity (ln)” value is 9.51.

Turning to “ATTATAAATATCAGTGCACACATTTCTACGCAAAGT [CACACA_site4420]”, the “gcPBM binding intensity (ln)” value was 9.91.

Turning to “TATGTAAAATGTGTTTGTACTTATTTATTATATAAA [XGTACX_site2816]”, the “gcPBM binding intensity (ln)” value is 9.43.

In the case of “AAGGAGCCTATGAACACACACATGTACAGATATTAA [CACACA_site6107]”, the “gcPBM binding intensity (ln)” value amounted to 9.96.

“ATATTTATTTTAATTTTTCTATATAAACTATTATGA [CACACA_negctrl_site739]”: the “gcPBM binding intensity (ln)” value was 9.4.

For “AGGAAGGAAATAAATCAACACACATATATTATATAT [CACACA_site8678]”, the “gcPBM binding intensity (ln)” value amounted to 9.87.

On to “TTTCTAAGAAAAAAAAAAAAAAAAAAAAAGATACAA [GTGCAC_negctrl_site525]”, for which the “gcPBM binding intensity (ln)” value came out at 9.24.

“TATATATATTATATATGTACATATTGTATATTTTTG [XGTACX_site4564]”: the “gcPBM binding intensity (ln)” value stood at 9.74.
